{"source": "the supplement of paper PMC8728848", "binders": {"B1": {"name": "CFEM-CGl (Candida glabrata), Q6FRS0 (protein)", "chain": "VLATPPACLLACVAQVSKQSSQCHTLNQVGCFCENENTAIKNCLDSICPNGNSDAAYTAFKNSCGDVGKAVASV"}}, "test_in_all_cases": "glycan array binding signal (z-score within array); higher = stronger binding", "settings_in_all_cases": "glycan notation: IUPAC condensed, linker removed", "key": {"[1]": {"target": "Gal(a1-6)Glc", "summary_of_the_method": "(§1)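 From the Consortium for Functional Glycomics database, 3228 arrays were curated, keeping only those whose protein sequence was available. Binding is given as a within-array Z-score averaged across arrays sharing a protein sequence and across linkers. Negative Z-scores can be read as non-binding.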"}, "[2]": {"target": "Gal(b1-2)Gal", "summary_of_the_method": "as §1"}, "[3]": {"target": "Gal(b1-3)Gal", "summary_of_the_method": "as §1"}, "[4]": {"target": "Gal(b1-3)Gal(b1-4)GlcNAc", "summary_of_the_method": "as §1"}, "[5]": {"target": "Gal(b1-3)GalNAc", "summary_of_the_method": "as §1"}, "[6]": {"target": "Gal(b1-3)GalNAc(a1-3)[Fuc(a1-2)]Gal(b1-4)Glc", "summary_of_the_method": "as §1"}, "[7]": {"target": "Gal(b1-3)GalNAc(a1-3)[Fuc(a1-2)]Gal(b1-4)GlcNAc", "summary_of_the_method": "as §1"}, "[8]": {"target": "Gal(b1-3)GalNAc(b1-3)Gal", "summary_of_the_method": "as §1"}, "[9]": {"target": "Gal(b1-3)GalNAc(b1-3)Gal(a1-4)Gal(b1-4)Glc", "summary_of_the_method": "as §1"}, "[10]": {"target": "Gal(b1-3)GalNAc(b1-4)Gal(b1-4)Glc", "summary_of_the_method": "as §1"}, "[11]": {"target": "Gal(b1-3)GalNAc(b1-4)[Neu5Ac(a2-3)]Gal(b1-4)Glc", "summary_of_the_method": "as §1"}, "[12]": {"target": "Gal(b1-3)GlcNAc", "summary_of_the_method": "as §1"}, "[13]": {"target": "Gal(b1-3)GlcNAc(a1-3)Gal(b1-4)GlcNAc", "summary_of_the_method": "as §1"}, "[14]": {"target": "Gal(b1-3)GlcNAc(a1-6)Gal(b1-4)GlcNAc", "summary_of_the_method": "as §1"}, "[15]": {"target": "Gal(b1-3)GlcNAc(b1-2)Man", "summary_of_the_method": "as §1"}, "[16]": {"target": "Gal(b1-3)GlcNAc(b1-2)Man(a1-3)[Gal(b1-3)GlcNAc(b1-2)Man(a1-6)]Man(b1-4)GlcNAc(b1-4)GlcNAc", "summary_of_the_method": "as §1"}, "[17]": {"target": "Gal(b1-3)GlcNAc(b1-2)Man(a1-3)[Gal(b1-3)GlcNAc(b1-2)Man(a1-6)]Man(b1-4)GlcNAc(b1-4)[Fuc(a1-6)]GlcNAc", "summary_of_the_method": "as §1"}, "[18]": {"target": "Gal(b1-3)GlcNAc(b1-2)Man(a1-3)[GlcNAc(b1-4)][Gal(b1-3)GlcNAc(b1-2)Man(a1-6)]Man(b1-4)GlcNAc(b1-4)GlcNAc", "summary_of_the_method": "as §1"}, "[19]": {"target": "Gal(b1-3)GlcNAc(b1-2)[Gal(b1-3)GlcNAc(b1-6)]Man(a1-6)[Gal(b1-3)GlcNAc(b1-2)Man(a1-3)]Man(b1-4)GlcNAc(b1-4)GlcNAc", "summary_of_the_method": "as §1"}, "[20]": {"target": "Gal(b1-3)GlcNAc(b1-3)Gal(b1-3)GlcNAc", "summary_of_the_method": "as §1"}, "[21]": {"target": "Gal(b1-3)GlcNAc(b1-3)Gal(b1-4)Glc", "summary_of_the_method": "as §1"}, "[22]": {"target": "Gal(b1-3)GlcNAc(b1-3)Gal(b1-4)GlcNAc", "summary_of_the_method": "as §1"}, "[23]": {"target": "Gal(b1-3)GlcNAc(b1-3)Gal(b1-4)GlcNAc(b1-2)Man(a1-3)[Gal(b1-3)GlcNAc(b1-3)Gal(b1-4)GlcNAc(b1-2)Man(a1-6)]Man(b1-4)GlcNAc(b1-4)GlcNAc", "summary_of_the_method": "as §1"}, "[24]": {"target": "Gal(b1-3)GlcNAc(b1-3)Gal(b1-4)GlcNAc(b1-2)[Gal(b1-3)GlcNAc(b1-3)Gal(b1-4)GlcNAc(b1-6)]Man(a1-6)[Gal(b1-3)GlcNAc(b1-3)Gal(b1-4)GlcNAc(b1-2)Man(a1-3)]Man(b1-4)GlcNAc(b1-4)[Fuc(a1-6)]GlcNAc", "summary_of_the_method": "as §1"}, "[25]": {"target": "Gal(b1-3)GlcNAc(b1-3)Gal(b1-4)GlcNAc(b1-3)Gal(b1-4)GlcNAc(b1-2)[Gal(b1-3)GlcNAc(b1-3)Gal(b1-4)GlcNAc(b1-3)Gal(b1-4)GlcNAc(b1-6)]Man(a1-6)[Gal(b1-3)GlcNAc(b1-3)Gal(b1-4)GlcNAc(b1-3)Gal(b1-4)GlcNAc(b1-2)Man(a1-3)]Man(b1-4)GlcNAc(b1-4)[Fuc(a1-6)]GlcNAc", "summary_of_the_method": "as §1"}, "[26]": {"target": "Gal(b1-3)GlcNAc(b1-3)Gal(b1-4)GlcNAc(b1-6)[Gal(b1-3)GlcNAc(b1-3)]Gal(b1-4)Glc", "summary_of_the_method": "as §1"}, "[27]": {"target": "Gal(b1-3)GlcNAc(b1-3)Gal(b1-4)[Fuc(a1-3)]GlcNAc", "summary_of_the_method": "as §1"}, "[28]": {"target": "Gal(b1-3)GlcNAc(b1-3)Gal(b1-4)[Fuc(a1-3)]GlcNAc(b1-6)[Gal(b1-3)GlcNAc(b1-3)]Gal(b1-4)Glc", "summary_of_the_method": "as §1"}, "[29]": {"target": "Gal(b1-3)GlcNAc(b1-3)GalNAc", "summary_of_the_method": "as §1"}, "[30]": {"target": "Gal(b1-3)GlcNAc(b1-6)Gal(b1-4)GlcNAc", "summary_of_the_method": "as §1"}, "[31]": {"target": "Gal(b1-3)GlcNAc(b1-6)GalNAc", "summary_of_the_method": "as §1"}, "[32]": {"target": "Gal(b1-3)GlcNAc(b1-6)[Gal(b1-3)]GalNAc", "summary_of_the_method": "as §1"}, "[33]": {"target": "Gal(b1-3)GlcNAc6S", "summary_of_the_method": "as §1"}, "[34]": {"target": "Gal(b1-3)[Fuc(a1-4)]GlcNAc", "summary_of_the_method": "as §1"}, "[35]": {"target": "Gal(b1-3)[Fuc(a1-4)]GlcNAc(b1-2)Man", "summary_of_the_method": "as §1"}, "[36]": {"target": "Gal(b1-3)[Fuc(a1-4)]GlcNAc(b1-2)Man(a1-3)[Gal(b1-3)[Fuc(a1-4)]GlcNAc(b1-2)Man(a1-6)]Man(b1-4)GlcNAc(b1-4)[Fuc(a1-6)]GlcNAc", "summary_of_the_method": "as §1"}, "[37]": {"target": "Gal(b1-3)[Fuc(a1-4)]GlcNAc(b1-3)Gal(b1-3)[Fuc(a1-4)]GlcNAc", "summary_of_the_method": "as §1"}, "[38]": {"target": "Gal(b1-3)[Fuc(a1-4)]GlcNAc(b1-3)Gal(b1-4)[Fuc(a1-3)]GlcNAc", "summary_of_the_method": "as §1"}, "[39]": {"target": "Gal(b1-3)[Fuc(a1-4)]GlcNAc(b1-6)GalNAc", "summary_of_the_method": "as §1"}, "[40]": {"target": "Gal(b1-3)[GlcNAc(b1-6)]GalNAc", "summary_of_the_method": "as §1"}, "[41]": {"target": "Gal(b1-3)[Neu5Ac(a2-6)]GalNAc", "summary_of_the_method": "as §1"}, "[42]": {"target": "Gal(b1-3)[Neu5Ac(a2-6)]GlcNAc(b1-4)Gal(b1-4)Glc", "summary_of_the_method": "as §1"}, "[43]": {"target": "Gal(b1-3)[Neu5Ac(b2-6)]GalNAc", "summary_of_the_method": "as §1"}, "[44]": {"target": "Gal(b1-4)Gal", "summary_of_the_method": "as §1"}, "[45]": {"target": "Gal(b1-4)GalNAc(a1-3)[Fuc(a1-2)]Gal(b1-4)GlcNAc", "summary_of_the_method": "as §1"}}, "note": "The other results are listed elsewhere or left out."}
{"binder": "B1", "values": [{"measurement": "glycan array binding signal (z-score)", "setting": "[1]", "value": 0.158}, {"measurement": "glycan array binding signal (z-score)", "setting": "[2]", "value": -0.181}, {"measurement": "glycan array binding signal (z-score)", "setting": "[3]", "value": 3.15}, {"measurement": "glycan array binding signal (z-score)", "setting": "[4]", "value": 2.81}, {"measurement": "glycan array binding signal (z-score)", "setting": "[5]", "value": 2.44}, {"measurement": "glycan array binding signal (z-score)", "setting": "[6]", "value": 0.176}, {"measurement": "glycan array binding signal (z-score)", "setting": "[7]", "value": 0.168}, {"measurement": "glycan array binding signal (z-score)", "setting": "[8]", "value": 6.73}, {"measurement": "glycan array binding signal (z-score)", "setting": "[9]", "value": 0.709}, {"measurement": "glycan array binding signal (z-score)", "setting": "[10]", "value": 9.88}, {"measurement": "glycan array binding signal (z-score)", "setting": "[11]", "value": 1.27}, {"measurement": "glycan array binding signal (z-score)", "setting": "[12]", "value": -0.469}, {"measurement": "glycan array binding signal (z-score)", "setting": "[13]", "value": -0.285}, {"measurement": "glycan array binding signal (z-score)", "setting": "[14]", "value": -0.322}, {"measurement": "glycan array binding signal (z-score)", "setting": "[15]", "value": 0.222}, {"measurement": "glycan array binding signal (z-score)", "setting": "[16]", "value": -0.248}, {"measurement": "glycan array binding signal (z-score)", "setting": "[17]", "value": -0.387}, {"measurement": "glycan array binding signal (z-score)", "setting": "[18]", "value": -0.231}, {"measurement": "glycan array binding signal (z-score)", "setting": "[19]", "value": -0.388}, {"measurement": "glycan array binding signal (z-score)", "setting": "[20]", "value": -0.175}, {"measurement": "glycan array binding signal (z-score)", "setting": "[21]", "value": -0.457}, {"measurement": "glycan array binding signal (z-score)", "setting": "[22]", "value": -0.24}, {"measurement": "glycan array binding signal (z-score)", "setting": "[23]", "value": -0.236}, {"measurement": "glycan array binding signal (z-score)", "setting": "[24]", "value": 0.279}, {"measurement": "glycan array binding signal (z-score)", "setting": "[25]", "value": 0.386}, {"measurement": "glycan array binding signal (z-score)", "setting": "[26]", "value": -0.31}, {"measurement": "glycan array binding signal (z-score)", "setting": "[27]", "value": -0.497}, {"measurement": "glycan array binding signal (z-score)", "setting": "[28]", "value": -0.431}, {"measurement": "glycan array binding signal (z-score)", "setting": "[29]", "value": -0.243}, {"measurement": "glycan array binding signal (z-score)", "setting": "[30]", "value": -0.142}, {"measurement": "glycan array binding signal (z-score)", "setting": "[31]", "value": -0.334}, {"measurement": "glycan array binding signal (z-score)", "setting": "[32]", "value": 0.496}, {"measurement": "glycan array binding signal (z-score)", "setting": "[33]", "value": -0.272}, {"measurement": "glycan array binding signal (z-score)", "setting": "[34]", "value": -0.307}, {"measurement": "glycan array binding signal (z-score)", "setting": "[35]", "value": -0.087}, {"measurement": "glycan array binding signal (z-score)", "setting": "[36]", "value": -0.165}, {"measurement": "glycan array binding signal (z-score)", "setting": "[37]", "value": -0.485}, {"measurement": "glycan array binding signal (z-score)", "setting": "[38]", "value": -0.158}, {"measurement": "glycan array binding signal (z-score)", "setting": "[39]", "value": 0.183}, {"measurement": "glycan array binding signal (z-score)", "setting": "[40]", "value": 0.824}, {"measurement": "glycan array binding signal (z-score)", "setting": "[41]", "value": 2.93}, {"measurement": "glycan array binding signal (z-score)", "setting": "[42]", "value": -0.359}, {"measurement": "glycan array binding signal (z-score)", "setting": "[43]", "value": -0.064}, {"measurement": "glycan array binding signal (z-score)", "setting": "[44]", "value": -0.278}, {"measurement": "glycan array binding signal (z-score)", "setting": "[45]", "value": -0.31}]}
